This is one part of the list. These are enrichments in a pooled selection; single values are uncertain. Each score is taken over the longer molecules that contain the sequence shown.

Chain of IMP3 KH1-4 (chain, as listed by the source): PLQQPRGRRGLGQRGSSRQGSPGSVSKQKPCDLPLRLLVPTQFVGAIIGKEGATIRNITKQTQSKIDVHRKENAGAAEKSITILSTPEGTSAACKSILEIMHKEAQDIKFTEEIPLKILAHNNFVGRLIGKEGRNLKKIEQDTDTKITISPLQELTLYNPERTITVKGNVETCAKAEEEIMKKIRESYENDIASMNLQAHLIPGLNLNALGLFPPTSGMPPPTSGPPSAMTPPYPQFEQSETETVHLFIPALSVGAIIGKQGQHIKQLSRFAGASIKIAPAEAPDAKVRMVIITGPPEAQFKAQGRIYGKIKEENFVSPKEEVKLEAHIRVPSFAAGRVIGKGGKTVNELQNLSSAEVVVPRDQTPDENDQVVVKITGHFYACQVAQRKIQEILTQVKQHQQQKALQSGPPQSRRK

The experiment relates to IMP3 KH1-4. Briefly: 6-mer SELEX enrichment z-score vs GST control; IMP3 is the RNA-binding protein IGF2BP3; higher = more enriched by binding. As to conditions: construct: KH1-4 (164-579); SELEX round: R4. The method, then:
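SELEX-seq with GST-tagged IMP3 KH1-4 (Pro164-Lys579) and an N40 RNA pool, round 4. 6-mer z-score of sequence-tag enrichment normalised to the corresponding GST SELEX round; RNA k-mers written as DNA (T for U).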
For the sequence TAGGTA, the “6-mer SELEX enrichment z-score” value is -0.072.

For GGCGGG, the “6-mer SELEX enrichment z-score” value turned out to be 0.507.

Take GTAGTC: the “6-mer SELEX enrichment z-score” value was -0.431.

Turning to TAAATC, the “6-mer SELEX enrichment z-score” value amounted to 0.452.

In the case of TAGCTA, the “6-mer SELEX enrichment z-score” value is -0.269.

For the sequence TAACCG, the “6-mer SELEX enrichment z-score” value is -0.589.

In the case of GAGGAC, the “6-mer SELEX enrichment z-score” value worked out at 0.545.

Regarding CGGGTG, the “6-mer SELEX enrichment z-score” value is -0.814.

CCCATT: the “6-mer SELEX enrichment z-score” value worked out at 0.218.

On to CTAAGC, for which the “6-mer SELEX enrichment z-score” value was -0.867.

Consider TAAATT, for which the “6-mer SELEX enrichment z-score” value was 1.12.

TATGGT: the “6-mer SELEX enrichment z-score” value is 0.337.

As for GCACCT, the “6-mer SELEX enrichment z-score” value is -0.587.

As for TTAGCT, the “6-mer SELEX enrichment z-score” value is 0.144.

Take GACATA: the “6-mer SELEX enrichment z-score” value was 1.08.

Consider AATCGA, for which the “6-mer SELEX enrichment z-score” value was -1.72.

CCGAAT: the “6-mer SELEX enrichment z-score” value was -0.913.

For the sequence ATATCA, the “6-mer SELEX enrichment z-score” value amounted to 1.9.

On to AGTTTG, for which the “6-mer SELEX enrichment z-score” value is -0.169.

For the sequence CTACCC, the “6-mer SELEX enrichment z-score” value was -1.02.

On to GATGGG, for which the “6-mer SELEX enrichment z-score” value came out at 0.868.

As to TTATAG, the “6-mer SELEX enrichment z-score” value worked out at 0.743.

Turning to GACATT, the “6-mer SELEX enrichment z-score” value was 0.285.

On to GTTAGC, for which the “6-mer SELEX enrichment z-score” value was -0.067.

For the sequence GTTCAA, the “6-mer SELEX enrichment z-score” value was -0.004.

Consider CAGGGT, for which the “6-mer SELEX enrichment z-score” value is 0.151.

TAAATA: the “6-mer SELEX enrichment z-score” value turned out to be 1.25.

As for AATAGA, the “6-mer SELEX enrichment z-score” value is 1.31.

On to CGCTTA, for which the “6-mer SELEX enrichment z-score” value amounted to 0.168.

On to CGGGTA, for which the “6-mer SELEX enrichment z-score” value is -0.398.

GGCTTA: the “6-mer SELEX enrichment z-score” value turned out to be 0.348.

As to GTAGAC, the “6-mer SELEX enrichment z-score” value was -1.18.

For GCCAAC, the “6-mer SELEX enrichment z-score” value is -0.695.

With GTACAT, the “6-mer SELEX enrichment z-score” value was found to be 0.384.

Consider GCCGAT, for which the “6-mer SELEX enrichment z-score” value was -0.404.

With AACCAG, the “6-mer SELEX enrichment z-score” value is -0.654.

For GTCATA, the “6-mer SELEX enrichment z-score” value is 0.526.

GGCTTC: the “6-mer SELEX enrichment z-score” value was -0.034.

For CCCGTT, the “6-mer SELEX enrichment z-score” value was -0.242.

In the case of CACGTA, the “6-mer SELEX enrichment z-score” value is -0.329.

The values above are taken from the supplement of paper PMC6531468.
